PubChem BioAssay AID1745853 (National Center for Advancing Translational Sciences (NCATS), 2022)
Several values for one entry are separate records, joined by “and”; a condition that tells them apart may be missing. Equal values may be shown once. The list shows a part of the results. Further columns of the screen follow, without active or inactive calls.

Experiments:
Test in all cases: Primary Screen for Target Class Profiling of Small Molecule Inhibitors of Methyltransferases
[1] = molecular target: Glycine N-methyltransferase (Homo sapiens) (UniProt Q14749); conditions: purified enzyme, MTase-Glo SAH luminescence; measured here: GNMT inhibition; at 40 µM; stronger effect = lower value
Method in brief: (§1)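 Each enzyme was assayed with SAM and its substrate. SAH formation detected by MTase-Glo luminescence; single-point 40 uM screen[…].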

[2] = molecular target: Guanidinoacetate N-methyltransferase (Homo sapiens) (UniProt Q14353); conditions: purified enzyme, MTase-Glo SAH luminescence; measured here: GAMT inhibition; at 40 µM; stronger effect = lower value
Method in brief: as §1

[3] = molecular target: Histamine N-methyltransferase (Homo sapiens) (UniProt P50135); conditions: purified enzyme, MTase-Glo SAH luminescence; measured here: HNMT inhibition; at 40 µM; stronger effect = lower value
Method in brief: as §1

[4] = molecular target: Nicotinamide N-methyltransferase (Homo sapiens) (UniProt P40261); conditions: purified enzyme, MTase-Glo SAH luminescence; measured here: NNMT inhibition; at 40 µM; stronger effect = lower value
Method in brief: as §1

[5] = molecular target: Phenylethanolamine N-methyltransferase (Homo sapiens) (UniProt P11086); conditions: purified enzyme, MTase-Glo SAH luminescence; measured here: PNMT inhibition; at 40 µM; stronger effect = lower value
Method in brief: as §1
% is scaled to controls: 0 for no effect and ±100 for the full control effect.

In the case of `C=C1C(=O)OC[C@H]2C(C(=O)O)=CC3CC(C)(C)C[C@@]132` (stereo not given in full), the activity change, negative = inhibition [1] is reported as 1.75%, the activity change, negative = inhibition [2] is reported as 4.4% and the activity change, negative = inhibition [3] is reported as 13.5%. It also gave an activity change, negative = inhibition [4] of -7.83% and an activity change, negative = inhibition [5] of 4.21%.

With `CCNC(=O)CCC/C=C\C[C@@H]1[C@@H](/C=C/C(O)CCc2ccccc2)[C@@H](O)C[C@@H]1O` (stereo not given in full) the activity change, negative = inhibition [1] was -5.08%, the activity change, negative = inhibition [2] was -3.54% and the activity change, negative = inhibition [3] was 3.82%. It also gave an activity change, negative = inhibition [4] of -17.6% and an activity change, negative = inhibition [5] of -0.533%.

For `O=C(c1cc(F)ccc1F)N1CCC(Oc2cccnc2)C1` (stereo not given), the activity change, negative = inhibition [1] was 0.135%, the activity change, negative = inhibition [2] was -0.543% and the activity change, negative = inhibition [3] was 0.016%. The activity change, negative = inhibition [4] was -3.44% and the activity change, negative = inhibition [5] was -1.35%.

`CCCn1c(=O)c2ccc(C(=O)NC3CCCC3)cc2n2c(=O)n(Cc3cccc(OC)c3)nc12` was tested, and the activity change, negative = inhibition [1] was -2.99%, the activity change, negative = inhibition [2] was 2.14% and the activity change, negative = inhibition [3] was 2.58%. It also gave an activity change, negative = inhibition [4] of -4.36% and an activity change, negative = inhibition [5] of -0.231%.

In the case of `COc1ccc(N2C(=O)[C@@H]3Cc4nc[nH]c4CN3C2=O)cc1`, the activity change, negative = inhibition [1] is reported as -1.74%, the activity change, negative = inhibition [2] is reported as -7.64% and the activity change, negative = inhibition [3] is reported as -0.023%. It also gave an activity change, negative = inhibition [4] of -13.7% and an activity change, negative = inhibition [5] of -5.23%.

For `CC(=O)Nc1ccc(-c2c(C(C)C)nn(-c3cccc(F)c3)c2OC(C)=O)cc1`, the activity change, negative = inhibition [1] was -0.962%, the activity change, negative = inhibition [2] was 4.37% and the activity change, negative = inhibition [3] was 2.33%. For the same molecule, the activity change, negative = inhibition [4] was 1.49% and the activity change, negative = inhibition [5] was 16.4%.

`CCCn1c(=O)c2cc(Cl)ccc2n2c(=O)n(CC(=O)NCc3ccccc3Cl)nc12` was tested, and the activity change, negative = inhibition [1] was -4.2%, the activity change, negative = inhibition [2] was -7.3% and the activity change, negative = inhibition [3] was 3.69%. It also gave an activity change, negative = inhibition [4] of -5.68% and an activity change, negative = inhibition [5] of -5.78%.

For `CC1(C)[C@@H](O)CC[C@]2(C)[C@H]3C(=O)C=C4[C@@H]5C[C@@](C)(C(=O)O)CC[C@]5(C)CC[C@@]4(C)[C@]3(C)CC[C@@H]12`, the activity change, negative = inhibition [1] was -10.1%, the activity change, negative = inhibition [2] was 7.57% and -0.599% and the activity change, negative = inhibition [3] was 4.09%. The activity change, negative = inhibition [4] was -23% and -16.7% and the activity change, negative = inhibition [5] was -3.26% and -9.38%.

`Cc1cccc(-c2nc3cc(C(=O)NCc4ccc(F)cc4)ccc3o2)n1` gave an activity change, negative = inhibition [1] of -3.81%, an activity change, negative = inhibition [2] of -6.39% and an activity change, negative = inhibition [3] of -2.2%. The activity change, negative = inhibition [4] was -5.68% and the activity change, negative = inhibition [5] was -4.97%.

Work on `CC(C)CCNC(=O)C1(C)Cn2c(cc3ccccc32)C(=O)N1Cc1ccc(N(C)C)cc1` (stereo not given) yielded an activity change, negative = inhibition [1] of -0.258%, an activity change, negative = inhibition [2] of 0% and an activity change, negative = inhibition [3] of -2.82%. For the same molecule, the activity change, negative = inhibition [4] was -6.68% and the activity change, negative = inhibition [5] was -3.19%.

`COC(=O)c1ccc([C@@H]2Nc3c(OC)cccc3[C@@H]3C=CC[C@@H]32)cc1` gave an activity change, negative = inhibition [1] of -5.69%, an activity change, negative = inhibition [2] of -2.74% and an activity change, negative = inhibition [3] of -6.33%. The activity change, negative = inhibition [4] was -16.7% and the activity change, negative = inhibition [5] was -11.2%.

Work on `CN1CCN(Cc2ccc(NC(=O)Nc3ccc(Oc4cc(NC(=O)C5CC5)ncn4)cc3)cc2C(F)(F)F)CC1` yielded an activity change, negative = inhibition [1] of -6.49%, an activity change, negative = inhibition [2] of 18.2% and an activity change, negative = inhibition [3] of -92.2%. For the same molecule, the activity change, negative = inhibition [4] was -16.2% and the activity change, negative = inhibition [5] was -8.44%.

`Cn1c(=O)c2ccc(C(=O)NC3CCCC3)cc2n2c(=O)n(CC(=O)NCc3ccccc3Cl)nc12` was tested, and the activity change, negative = inhibition [1] was 3.47%, the activity change, negative = inhibition [2] was 1.47% and the activity change, negative = inhibition [3] was 1.04%. It also gave an activity change, negative = inhibition [4] of 0.591% and an activity change, negative = inhibition [5] of -2.69%.

With `COc1ccc(-c2ccc3ccccc3n2)c(OC)c1OC` the activity change, negative = inhibition [1] was -7.65%, the activity change, negative = inhibition [2] was -1.86% and the activity change, negative = inhibition [3] was -3.52%. It also gave an activity change, negative = inhibition [4] of -3.08% and an activity change, negative = inhibition [5] of -0.713%.

With `Cn1c(=O)n(C)c2cc(S(=O)(=O)N3CCN(c4ccccn4)CC3)c(Cl)cc21` the activity change, negative = inhibition [1] was 10.5%, the activity change, negative = inhibition [2] was 0.952% and the activity change, negative = inhibition [3] was 8.89%. For the same molecule, the activity change, negative = inhibition [4] was 2.98% and the activity change, negative = inhibition [5] was 7.4%.

With `COc1cccc(CNC(=O)c2cc3n(n2)CC(C)(C(=O)NC2CCCCC2)N(C)C3=O)c1` (stereo not given) the activity change, negative = inhibition [1] was 4.79%, the activity change, negative = inhibition [2] was 0% and the activity change, negative = inhibition [3] was 4.39%. It also gave an activity change, negative = inhibition [4] of 6.7% and an activity change, negative = inhibition [5] of 1.2%.
